In publication PMC6919601, “Identification of Plasmodium dipeptidyl aminopeptidase allosteric inhibitors by high throughput screening” (PLoS ONE, 2019):
In all, about 110,000 compounds went through this assay and about 230 (0.21%) showed an effect of 50% or more. The list shows a part of the results.

What follows are compounds tested against DPAP1 (Plasmodium falciparum, UniProt Q8IIJ9) (assay: primary screen, percent inhibition; read by cleavage of a fluorogenic dipeptide substrate; higher = more effect of the substance).
DPAP1, sequence (Q8IIJ9 whole entry, looked up): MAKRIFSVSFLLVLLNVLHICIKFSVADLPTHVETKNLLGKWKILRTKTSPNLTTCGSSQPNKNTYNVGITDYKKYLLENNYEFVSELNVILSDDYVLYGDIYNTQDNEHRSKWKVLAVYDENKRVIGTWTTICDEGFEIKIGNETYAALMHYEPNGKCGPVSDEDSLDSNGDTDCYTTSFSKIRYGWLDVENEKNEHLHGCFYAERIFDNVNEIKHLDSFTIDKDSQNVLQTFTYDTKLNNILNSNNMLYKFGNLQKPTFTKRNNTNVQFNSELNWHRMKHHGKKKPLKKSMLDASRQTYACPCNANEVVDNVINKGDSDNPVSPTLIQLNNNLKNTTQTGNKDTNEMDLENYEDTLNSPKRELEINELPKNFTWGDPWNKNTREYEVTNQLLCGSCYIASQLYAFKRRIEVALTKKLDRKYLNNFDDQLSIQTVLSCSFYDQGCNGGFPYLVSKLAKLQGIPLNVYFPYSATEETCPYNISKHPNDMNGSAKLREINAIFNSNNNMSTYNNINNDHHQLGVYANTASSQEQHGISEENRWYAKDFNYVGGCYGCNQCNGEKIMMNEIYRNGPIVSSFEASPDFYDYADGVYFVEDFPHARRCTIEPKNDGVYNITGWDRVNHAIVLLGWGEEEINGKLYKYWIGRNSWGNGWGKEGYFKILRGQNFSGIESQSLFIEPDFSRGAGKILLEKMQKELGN
Parameters: species or system P. falciparum D10 trophozoite lysates; single well
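Further: 30 min substrate incubation versus DMSO and 10 µM JCP410 controls.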

Row | Structure (SMILES) | % Inhibition @ 10 uM [%]
1 | CN1C(=O)c2ccccc2C1(O)c1ccccc1 (centres unmarked) | -3.94
2 | Cc1ccccc1-c1nc(CS(=O)CC(=O)N2CCOCC2)c(C)o1 (centres unmarked) | -1.05
3 | COc1ccc(S(=O)(=O)N(C)C2CCCCC2)cc1 | 2.99
4 | CC1=NC(=S)NC(c2ccc(N(C)C)cc2)/C1=C(/O)OCC(C)C (centres unmarked) | -2.03
5 | Cc1cccc(/N=c2\scc(-c3ccccc3)n2CCO)c1 | -0.67
6 | CC1C(=O)CC(c2ccccc2)N(C)C1c1ccccc1 (centres unmarked) | -3.03
7 | Cc1cc(C)n2nc(Cc3ccccc3)nc2n1 | 1
8 | COc1ccccc1NC(=O)C1CC=CCC1C(=O)NC1CCCCC1 (centres unmarked) | 1.42
9 | N#Cc1c(/N=C/c2cccn2-c2ccc(S(N)(=O)=O)cc2)sc2c1CCCC2 | 0.47
10 | O=C(NCCc1ccccc1)C1c2ccccc2C(=O)N(C2CCCC2)C1c1cccs1 (centres unmarked) | 2.74
11 | CCOc1c(CNCc2ccncc2)cccc1OC | 1.72
12 | Cc1ccc(OCCCCCN2CCCCC2)c(C)c1 | 0.135
13 | CC(C)(C)c1ccc(Sc2cc3c(c(N4CCCCC4)c2)C(=O)c2ccccc2C3=O)cc1 | -2.91
14 | COCCCNC(=O)CSc1nnc(C)c2c(C)n(-c3ccccc3)nc12 | 2.58
15 | CCOc1cc(=O)oc2ccccc12 | -5.26
16 | COC(=O)c1cc(C)nc2c1c(C)nn2-c1ccccc1Cl | -2.83
17 | Cc1ccc(CNC(=O)CCc2nnc3ccc(N4CCC(C)CC4)nn23)cc1 | -0.544
18 | CCN1CCCC1CNC(=O)c1cc2c(O)nc3ccc(C)cc3c2s1 (centres unmarked) | 2.85
19 | COc1ccc(CCNS(=O)(=O)c2c(C)nc3scc(C)n3c2=O)cc1OC | 0.128
20 | C=CCOc1ccc(C(=O)C2=C(O)C(=O)N(CCN(C)C)C2c2ccccc2F)cc1C (centres unmarked) | 4.74
21 | COc1ccc(Br)cc1C1CC(=O)NC(C)=C1C(=O)OC(C)C (centres unmarked) | -3.87
22 | CCN(CC)CCCNC(=O)c1[nH]c(C)c(C(C)=O)c1C | -4.38
23 | Cc1ccc(CCNC(=O)Cc2noc3ccc(C)cc23)cc1 | -0.788
24 | CC(=O)c1c(O)c2c3n(c1=O)-c1ccccc1C3(C)CCC2 (centres unmarked) | -4.76
25 | Cc1ccc(S(=O)(=O)N(CC(=O)N2CCN(C)CC2)c2ccccc2C)cc1 | 0.235

Row | Structure (SMILES) | % Inhibition @ 10 uM [%]
26 | CC1(C)CC(=O)C2=C(C1)OC(N)=C(C#N)C2c1ccccc1OCc1ccccc1Cl (centres unmarked) | -0.736
27 | Cc1c(CC(=O)N2CCCC2)c(=O)oc2c(C)c(O)ccc12 | 2.54
28 | COc1ccc(C2OC(=O)CC2C(=O)NC(C)C)cc1OC (centres unmarked) | 0.238
29 | O=C(O)CCC(=O)Nc1ccc(S(=O)(=O)Nc2ccc(F)cc2)cc1 | 1.37
30 | COCCNC(=O)CCCCn1c(=S)[nH]c2c([nH]c3ccc(OC)cc32)c1=O | -3.95
31 | Cn1nccc1C(=O)Nc1ccn(C23CC4CC(CC(C4)C2)C3)n1 | -2.09
32 | CCN(CC)C(=O)C1CCCN(Cc2ccc(C(F)(F)F)cc2)C1 (centres unmarked) | -2.7
33 | Cc1ccc(CSCc2ccc(C(=O)NCc3cccs3)o2)cc1 | 2.18
34 | C=CCOC(=O)c1sc(N2C(=O)c3oc4ccccc4c(=O)c3C2c2ccc(O)cc2)nc1C (centres unmarked) | 7.65
35 | O=C(/C=C/Nc1ccccn1)c1ccc(Cl)s1 | -4.03
36 | C=CCn1c(=N)c(C(=O)NC)cc2c(=O)n3cc(C)ccc3nc21 | -1.47
37 | O=C(CCC1CCCC1)Nc1ccc(Br)cn1 | -4.41
38 | COc1ccc(C(=O)C2=C(O)C(=O)N(CCCn3ccnc3)C2c2cccc(O)c2)cc1F (centres unmarked) | -0.132
39 | COCCCNC(=O)CSc1nc2nc(C)c(Cc3c(F)cccc3Cl)c(C)n2n1 | 18.5
40 | COc1cc2c(cc1OC)CN(C(=O)c1ccco1)CC2 | -7.3
41 | CC(C)Cn1cc(NC(=O)NCCC2=CCCCC2)c2ccccc2c1=O | -2.52
42 | CC(C)N(C(=O)c1ccc2snnc2c1)C(C)C | -0.0235
43 | Cc1cccc(C)c1OCCCN1CCOCC1 | -2.12
44 | O=C(Cn1cc(S(=O)(=O)Cc2ccccc2)c2ccccc21)NC1CCCCC1 | 4.91
45 | CCOc1ccc(C2NCCc3cc(OCC)c(OC)cc32)cc1OC (centres unmarked) | 5.15
46 | CC(C)CC(C(=O)NCC#N)c1nc(-c2ccc(Br)cc2)cs1 (centres unmarked) | 0.173
47 | COc1ccccc1N1CCN(S(=O)(=O)c2cc(Cl)ccc2Cl)CC1 | 1.83
48 | COc1cc(NC(=O)CC2S/C(=N\c3ccccc3C)N(C)C2=O)c(OC)cc1Cl (centres unmarked) | -0.992
49 | CCN(CCN(C)C)Cc1ccc(OC)cc1 | 1.62
50 | CCc1nc2cccnc2n1-c1ccc(CC(=O)NCCc2ccc(S(N)(=O)=O)cc2)cc1 | 6.78
